Reference: the supplement of paper PMC12217912
Some of the results follow. The full chains were built here from the parent and the listed change. Inactive controls read about 0.05.

B1: TEV protease; numbered along this chain (parent)
chain: MGESLFKGPRDYNPISSSICHLTNESDGHTTSLYGIGFGPFIITNKHLFRRNNGTLVVQSLHGVFKVKDTTTLQQHLVDGRDMIIIRMPKDFPPFPQKLKFREPQREERICLVTTNFQTKSMSSMVSDTSCTFPSGDGIFWKHWIQTKDGQCGSPLVSTRDGFIVGIHSASNFTNTNNYFTSVPKNFMELLTNQEAQQWVSGWRLNADSVLWGGHKVFMVKPEEPFQPVKEATQL

Variants of: B1
Test: raw area under fraction-flipped curve 0-4 h after induction (AUC4h, not background-subtracted), DNA-recorder readout of cleavage of the substrate (dimensionless); higher = more cleavage of the substrate by the protease variant
Settings: temperature: 34 °C; time window: 0-4 h after rhamnose induction
Protocol: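 In vivo DNA recorder in E. coli TOP10(DE3) ΔrhaA at 34 °C. Each TEVp single-site mutant (parent TEVp 0) is paired with a single-site variant of the 7-mer TEVs (canonical ENLYFQ|S). The substrate sits between flexible linkers in a Bxb1-sfGFP-TEVs-SsrA fusion, so cleavage stabilises Bxb1 and speeds flipping of a recombination array, read by NGS. The value is the raw area under the fraction-flipped curve over 0-4 h after rhamnose induction (AUC4h), with ≥20 reads per time point. It is not background-subtracted; inactive controls average about 0.047.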
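Also: Bxb1 expression induced with 0.2% (w/v) L-rhamnose at OD600 near 0.5, cultures sampled hourly, flipped fraction per protease–substrate barcode pair counted by paired-end Illumina sequencing.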

Row | Variant | area with substrate ENLYFQA | area with substrate ENLYFQD | area with substrate ENLYFQE | area with substrate ENLYFQG | area with substrate ENLYFQI | area with substrate ENLYFQL | area with substrate ENLYFQM | area with substrate ENLYFQN | area with substrate ENLYFQR | area with substrate ENLYFQS | area with substrate ENLYFQT | area with substrate ENLYFQW | area with substrate ENLYFQC | area with substrate ENLYFQK | area with substrate ENLYFQV | area with substrate ENLYFQF | area with substrate ENLYFQP | area with substrate ENLYFQQ | area with substrate ENLYFQY | area with substrate ENLYFQH
1 | V67M | 0.0915 | 0.0663 | 0.0584 | 0.08 | 0.0551 | 0.0496 | 0.0759 | 0.0707 | 0.0579 | 0.0878 | 0.0661 | 0.0726 |  |  |  |  |  |  |  | 
2 | G80R | 0.0772 | 0.0689 |  |  | 0.0352 |  | 0.117 | 0.0733 | 0.0605 | 0.098 | 0.0615 | 0.0629 | 0.0652 | 0.0295 | 0.0463 |  |  |  |  | 
3 | K90L | 0.0931 | 0.071 |  | 0.0981 | 0.0635 | 0.0736 | 0.0968 | 0.0743 | 0.0561 | 0.109 | 0.0578 | 0.0461 | 0.12 | 0.0384 | 0.065 | 0.0926 | 0.0709 | 0.0769 | 0.0816 | 
4 | R51L | 0.0838 | 0.0691 |  | 0.0912 | 0.0386 |  | 0.0884 | 0.075 |  | 0.108 |  |  | 0.0948 | 0.0597 |  | 0.0794 |  |  | 0.0794 | 0.0777
5 | R81D | 0.0273 | 0.0647 |  | 0.0639 | 0.0646 | 0.0599 | 0.0612 |  | 0.0397 | 0.067 | 0.0482 | 0.053 |  | 0.0622 |  | 0.0534 |  | 0.0522 | 0.0659 | 
6 | R81E | 0.0752 | 0.0683 |  |  |  | 0.0495 | 0.0625 |  | 0.0553 | 0.0669 | 0.058 | 0.0599 | 0.0579 | 0.0643 |  |  | 0.0573 | 0.0512 |  | 0.0694
7 | R81L | 0.101 |  |  | 0.0776 |  | 0.0481 | 0.0853 | 0.066 | 0.0532 | 0.0998 | 0.0639 | 0.064 | 0.102 | 0.0674 |  | 0.0636 | 0.0633 | 0.0594 |  | 
8 | N52R | 0.0734 |  |  |  | 0.0597 | 0.0476 | 0.0572 | 0.0625 | 0.0572 | 0.0768 | 0.0727 |  |  | 0.0623 | 0.0612 | 0.0445 | 0.0596 | 0.0673 | 0.0559 | 0.0812
9 | N52H | 0.0538 |  |  |  | 0.0619 | 0.0504 | 0.0467 | 0.0613 | 0.0541 | 0.071 | 0.0563 | 0.0443 | 0.0719 | 0.0857 | 0.0797 | 0.0392 |  |  | 0.0564 | 
10 | F95G | 0.0502 | 0.0453 |  | 0.0607 |  |  |  | 0.0334 |  | 0.0659 |  | 0.0502 | 0.0648 | 0.0514 | 0.0413 |  | 0.0416 |  | 0.0513 | 
11 | F95W | 0.101 | 0.0851 |  | 0.0687 |  |  |  | 0.0697 | 0.054 | 0.104 |  |  | 0.144 |  | 0.0633 | 0.0718 | 0.0621 |  | 0.071 | 0.0704
12 | T70A | 0.0855 |  |  |  |  | 0.0499 | 0.0628 | 0.0642 | 0.0535 | 0.0836 | 0.0654 | 0.0614 |  |  | 0.0687 |  |  |  |  | 0.0646
13 | T70W | 0.0636 | 0.0606 | 0.0597 | 0.0126 | 0.0615 | 0.0575 | 0.0674 | 0.0582 | 0.0601 | 0.0667 | 0.0588 | 0.0609 | 0.0754 | 0.0578 | 0.0569 | 0.0764 | 0.0834 | 0.0729 | 0.0574 | 
